Source: patent US5633229A, “Method of using prophenins-antibiotic peptides” (University of California, priority 1995, dated 1997)
Not every detail of the peptide structures is certain; ends, links or a residue may be inferred. Where no end group is shown, it is not given here.

System: lipid polysaccharide (LPS) of the Gram-negative bacterium E. coli strain 0.55B5
Experiment: Limulus amebocyte lysate (LAL) test for endotoxin binding
Type: biochemical
Design: key: ++: a solid gel (no inhibition); +: increased viscosity without solid gel formation (partial inhibition); 0: gelation was absent (complete inhibition)
Method: The prophenins of the invention were tested for their ability to bind the lipid polysaccharide (LPS) of the Gram-negative bacterium E. coli strain 0.55B5. The assay was the Limulus amebocyte lysate (LAL) test for endotoxins conducted in the presence and absence of the test compounds. The test was conducted using the procedure described in Sigma Technical Bulletin No. 210 as revised in Dec. 1992 and published by Sigma Chemical Company, St. Louis, Mo.
The LAL test is based on the ability of LPS to effect gelation in the commercial reagent E-TOXATE™ which is prepared from the lysate of circulating amebocytes of the Horseshoe Crab Limulus polyphemus. As described in the technical bulletin, when exposed to minute quantities of LPS, the lysate increases in opacity as well as viscosity and may gel or clot depending on the concentration of endotoxin. The technical bulletin goes on to speculate that the mechanism appears analogous to the clotting of mammalian blood and involves the steps of activation of a trypsin-like preclotting enzymes by the LPS in the presence of calcium ion, followed by enzymic modifications of a "coagulogen" by proteolysis to produce a clottable protein. These steps are believed tied to the biologically active or "pyrogenic" portion of the molecule. It has been shown previously that detoxified LPS (or endotoxin) gives a negative LAL test.
In the assay, the amounts of prophenin-1 and polymyxin B (78% free polymyxin, Sigma) were preincubated in a final volume of 0.2 ml and the test mixtures contained LPS at a final concentration of 0.05 endotoxin unit/ml and E-TOXATE™ at the same concentration. The test compounds were incubated together with the LPS for 15 minutes before the E-TOXATE™ was added to a final volume (after E-TOXATE™ addition) of 0.2 ml. The tubes were then incubated for 60 minutes at 37° C. and examined for the formation of a gel.

Row | Sequence | LPS-induced gel formation of E-TOXATE (Table 4, fragments) (fragment 1.25 μg/ml) | LPS-induced gel formation of E-TOXATE (Table 4, fragments) (fragment 2.5 μg/ml) | LPS-induced gel formation of E-TOXATE (Table 4, fragments) (fragment 5.0 μg/ml) | LPS-induced gel formation of E-TOXATE (Table 4, fragments) (fragment 10.0 μg/ml) | LPS-induced gel formation of E-TOXATE (Table 4, fragments) (fragment .16 μg/ml) | LPS-induced gel formation of E-TOXATE (Table 4, fragments) (fragment .31 μg/ml) | LPS-induced gel formation of E-TOXATE (Table 4, fragments) (fragment .625 μg/ml)
1 | FPPPNFPGPR [Fraction 2] | + | + | 0 | 0 | ++ | ++ | ++
2 | FPPPNFPGPPFPPPIFPGPWFPPPPPFRPPPFGPPR [Fraction 3] | + | + | + | 0 | ++ | ++ | ++
3 | AFPPPNVPGPR [Fraction 1] | ++ | + | 0 | 0 | ++ | ++ | ++
